The text below walks through data of PubChem BioAssay (NCI).

What all share (assay): NCI anticancer screen, dose series, 48 h
In assay [1] the test system is HCT-116 colon.
The subject of assay [2] is HL-60(TB) leukemia.
Assay [3] concerns HOP-92 NSCLC.
Assay [4] deals with K-562 leukemia.
The test system of assay [5] is LOX IMVI melanoma.
Assay [6] deals with NCI/ADR-RES ovarian.
Assay [7] concerns RPMI-8226 leukemia.
For assay [8], the system named is SF-295 CNS.
Assay [9] relates to SN12C renal.
Assay [10] deals with OVCAR-5 ovarian.
For assay [11], the system named is 786-0 renal.
For assay [12], the system named is CAKI-1 renal.
Assay [13] relates to HT29 colon.
Assay [14] has as its system IGROV1 ovarian.
Assay [15] has as its system M14 melanoma.
Assay [16] relates to OVCAR-8 ovarian.
The subject of assay [17] is SK-MEL-2 melanoma.
Assay [18] relates to SNB-75 CNS.
Assay [19] deals with SR leukemia.
Assay [20] has as its system SW-620 colon.

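Step 1: Grow cells in 96-well plates. Step 2: Expose to compound for 48 hours at 5 concentrations. Step 3: Interpolate endpoints linearly; if unreached, use highest concentration. Definition used: TGI = concentration required for complete inhibition of growth.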 Certain results were filed several times, with different values. The list is limited to them. An entry can have further records. For some assays here: A record mostly stands for its own series of concentrations, which the source does not state; some values may only mark the edge of a range. For some assays here: Values given together are repeated measurements across runs, samples, wells, individuals or studies. What stands in brackets tells the records apart. A, B and so on number the origins entry by entry.

For `CC1OC(O[C@@H]2C=C3CC[C@@H]4[C@H](CC[C@]5(C)[C@@H](c6ccc(=O)oc6)CC[C@]45O)[C@@]3(C)CC2)C(O)C(OC2OC(CO)C(O)C(O)C2O)C1O` (stereo partly drawn), the TGI in [1] is 1.2 nM and 28.2 nM; in assay [2], 0.1 nM and 539 nM; in assay [3], 1.93 nM and 30.3 nM; in assay [4], 0.416 nM and 57.1 nM; in assay [5] it was 2.4 nM and 169 nM; in [6] it was 1.48 nM and 50 nM. Further, the TGI in assay [7] was 1.8 nM and 25.6 nM; in assay [8] it was 1.73 nM and 26.4 nM; in [9], 0.482 nM and 539 nM.
Turning to `CNC(=O)c1cc(Oc2ccc(NC(=O)Nc3cc(C(C)(C)C)nn3-c3ccc4ncccc4c3)c(F)c2)ccn1`, the TGI in [10] was 8.95 µM [sample A, mean of 2 tests] and > 100 µM [sample B, 1 test].
Take `COc1ccc2c(c1)nnc1c3cccnc3[nH]c21`: the TGI in assay [11] is 3.28 µM and > 100 µM; in assay [12], 339 nM and > 100 µM; in assay [1] it was 928 nM and > 100 µM; in assay [2], 635 nM and > 100 µM; in [13] it was 2.73 µM and > 100 µM; in [14], 3.54 µM and > 100 µM. In addition, the TGI in assay [4] was 1.84 µM and > 100 µM; in assay [15], 5.33 µM and > 100 µM; in assay [16], 50 µM and 2.45 µM; in assay [17] it was 8.18 µM and > 100 µM; in assay [18], 8.19 µM and > 100 µM; in assay [19], 217 nM and > 100 µM. In addition, the TGI in assay [20] was 1.67 µM and > 100 µM.
